# Laboratory results from PubChem BioAssay AID1347073 (National Center for Advancing Translational Sciences (NCATS), 2019).
# The whole screen tested about 45,000 compounds, of which about 200 (0.44%) were called active. The shares of active, inactive and inconclusive entries below differ from those in the screen. Calls come from the whole dose curve; as a rule, active = well fitted activation curve with a large enough effect; inconclusive = small, poorly fitted or top-dose-only effect; inactive = no such curve, though single readings can be large or run the other way. Where the call is inconclusive, the potency comes from a doubtful curve fit.
# Test: qHTS of TDP-43 Inhibitors: NCGC Sytravon Library Screen; note: nearly all actives have a fitted effect of over 55% in size; for growth rescue (activation): 0% is about no effect
# Settings: yeast TDP-43 toxicity rescue, BacTiter-Glo growth, 24 h; growth rescue (activation): at 46.1 µM (top of the series)
# Procedure, shortened: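 TDP-43-expressing yeast, pregrown in raffinose, seeded at OD600 0.02 in galactose medium with compound for 24 hr at 30 deg C. Growth read by BacTiter-Glo luminescence, so rescue of toxicity appears as activation.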
# Potency is the fitted concentration of half-maximal effect; tags give direction and shape of the fitted curve.
SMILES,Potency,growth rescue (activation)
O=C(COC(=O)CCSc1ccc(Cl)cc1)Nc1ccc(F)cc1,active: 11.2 µM,
CO/N=C/CC(=O)c1ccc(-c2ccccc2)cc1,"inconclusive: 17.8 µM [activator, single point]",
CCCOc1ccc(C(=O)NCCC(=O)NCCCC(=O)O)cc1,"inconclusive: 35.5 µM [activator, single point]",
CC(=O)c1ccc(NC(=S)N2c3ccccc3CC2C)cc1 (stereo not given),"inconclusive: 35.5 µM [activator, partial curve, poor fit]",
CC(C)C(C(=O)NC1CCCC1)N(Cc1ccco1)C(=O)CNS(=O)(=O)c1ccccc1 (stereo not given),inactive,
O=C(c1cncc(Br)c1)N1CCN(S(=O)(=O)c2ccc3ccccc3c2)CC1,"inconclusive: 28.2 µM [activator, partial curve, poor fit]",
CCOc1cc(/C=N/O)ccc1OCc1ccc(C)cc1,"inconclusive: 12.6 µM [activator, partial curve, poor fit]",
Cc1cs/c(=N\N=C\c2ccc(O)cc2)n1Cc1ccco1,"inconclusive: 28.2 µM [activator, single point]",
COc1ccccc1C(=O)O/N=C(\N)c1ccccn1,"inconclusive: 20 µM [activator, single point]",
O=C1c2ccccc2C(=O)N1CCCCSc1nnnn1-c1ccccc1,"inconclusive: 25.1 µM [activator, single point]",
Cc1cc(C)cc(N=c2c([N+](=O)[O-])nn(-c3ccc(Cl)cc3)n2O)c1,"inconclusive: 2.24 µM [activator, full curve, poor fit]",
Cn1c(=O)[nH]c(=O)c2c1nc(Br)n2C/C=N/Nc1ccccc1,"inconclusive: 31.6 µM [activator, partial curve, poor fit]",
Cc1ccc(Nc2nc(CSc3nnc(-c4ccccc4)n3C)cs2)cc1,"inconclusive: 35.5 µM [activator, single point]",
N#Cc1cnn2c(-c3ccc(Cl)cc3Cl)ccnc12,"inconclusive: 10 µM [activator, partial curve, poor fit]",
COc1cccc(CN2CCC(Oc3ccc(C(=O)N4CCCCC4)cc3)CC2)c1O,inactive,
CCOc1ccc(NC(=O)Cn2c(=O)n(CC(=O)NCCc3ccccc3)c(=O)c3sccc32)cc1,inactive,
CCCCOc1ccccc1NC(=O)c1ccco1,"inconclusive: 11.2 µM [activator, partial curve, poor fit]",
CC(=O)Nc1ccc(NC(=O)COC(=O)C2(c3ccc(Cl)cc3)CCCC2)cc1,"inconclusive: 14.1 µM [activator, partial curve, poor fit]",
COc1ccccc1CNC(=O)CSc1ccc(C)cc1,"inconclusive: 35.5 µM [activator, partial curve, poor fit]",
O=C(NCc1ccco1)c1ccc(-c2ccc(F)c(F)c2)c2ccoc12,"inconclusive: 35.5 µM [activator, single point]",
COC(=O)c1cc(-c2ccc(NC(C)=O)cc2)nc2ccccc12,"inconclusive: 3.55 µM [activator, partial curve, poor fit]",
COc1ccc(Br)cc1/C=C(\C(=O)O)c1ccc(S(=O)(=O)N2CCCCC2)s1,"inconclusive: 1.26 µM [activator, partial curve, poor fit]",

SMILES,Potency,growth rescue (activation)
COC(=O)c1cc(-c2cccs2)nn1-c1ccccc1,"inconclusive: 11.2 µM [activator, partial curve, poor fit]",
COC(=O)C(NC(=O)c1ccccc1)(Nc1nccs1)C(F)(F)F (stereo not given),"inconclusive: 35.5 µM [activator, single point]",
Cc1[nH]c(=O)[nH]c(=O)c1/C=N/NC(=O)CCCCCNC(=O)OC(C)(C)C,"inconclusive: 20 µM [activator, single point]",
O=C(NCC1CCCO1)C(=O)N/N=C/c1ccc(O)c(Cl)c1 (stereo not given),"inconclusive: 35.5 µM [activator, single point]",
C/C(=C/C(=O)N1CCN(C)CC1)C(=O)O,inactive,
CCOc1ccc(CN2CCN(Cc3c(C)nn(CC)c3C)CC2CCO)cc1 (stereo not given),"inconclusive: 35.5 µM [activator, single point]",
O=C(c1cc2ccccc2o1)N1CCN(c2ncccn2)CC1,"inconclusive: 17.8 µM [activator, single point]",
C/C(=N\OC(=O)C1CC1)C1CC1c1ccc(F)cc1 (stereo not given),"inconclusive: 17.8 µM [activator, partial curve, poor fit]",
O=Nc1ccc(NOC(=O)c2ccccc2Br)cc1,"inconclusive: 11.2 µM [activator, single point]",
COc1ccc(N2CCN(C(=O)c3cccc(S(=O)(=O)N4CCc5ccccc54)c3)CC2)cc1,"inconclusive: 35.5 µM [activator, single point]",
O=C(c1ccc(Br)o1)N1CCC(Cc2ccccc2)CC1,"inconclusive: 12.6 µM [activator, partial curve, poor fit]",
COc1ccc(C(=O)N2CCC2(C)C(=O)NC(C)C)cc1 (stereo not given),inactive,
Cc1ccc(-c2nc3ccccc3c(=O)n2NC(=O)COc2ccccc2)cc1,"inconclusive: 20 µM [activator, partial curve, poor fit]",
CC(C)CNC(=S)NC(=O)c1ccc(Cl)cc1,"inconclusive: 14.1 µM [activator, partial curve, poor fit]",
COC(=O)c1cc2sc(C)cc2n1Cc1nc(-c2ccc(C)cc2)oc1C,inactive,
O=c1[nH]c(=O)n(Cc2ccccc2)c2nc(-c3cccs3)n(CCO)c12,"inconclusive: 35.5 µM [activator, single point]",
COc1ccc(NC(=O)C2CCCN2C(=O)OCc2ccccc2)cc1 (stereo not given),"inconclusive: 35.5 µM [activator, partial curve, poor fit]",
Cc1sc2ncnc(N3CCCC(C)C3)c2c1C (stereo not given),"inconclusive: 14.1 µM [activator, partial curve, poor fit]",
O=C(NCc1ccccc1Cl)c1cccc(NC(=O)c2ccccc2)c1,"inconclusive: 28.2 µM [activator, partial curve, poor fit]",
CC1(Br)C2CCCC1C2S(=O)(=O)c1ccccc1 (stereo not given),"inconclusive: 11.2 µM [activator, partial curve, poor fit]",
CCOc1cc(-c2nc(C)c(C(C)=O)n2O)ccc1OCC(=O)Nc1ccccc1,active: 11.2 µM,
Cc1ccc(CNC(=O)c2cccc(OCc3c(C)noc3C)c2)cc1,"inconclusive: 17.8 µM [activator, partial curve, poor fit]",

SMILES,Potency,growth rescue (activation)
O=C1CCCN2N=C(SCC(=O)Nc3cccc(F)c3)SC2=N1,inactive,
CCOC(=O)N1CCN(S(=O)(=O)c2cc([N+](=O)[O-])c(C)cc2C)CC1,"inconclusive: 11.2 µM [activator, partial curve, poor fit]",
CC1(C(=O)NS(=O)(=O)Cc2ccccc2)CCN1C(=O)C1(c2ccc(Cl)cc2)CCC1 (stereo not given),,inconclusive: 85.4% [activator]
CCc1ccc(NC(=O)c2cc(C)nn2-c2ccccc2)cc1,"inconclusive: 20 µM [activator, partial curve, poor fit]",
COc1ccccc1-c1csc(C(O)c2ccccc2)n1 (stereo not given),"inconclusive: 11.2 µM [activator, partial curve, poor fit]",
COc1ccccc1NC(=O)Cn1nc(Cc2cccnc2)c2ccccc2c1=O,"inconclusive: 35.5 µM [activator, partial curve, poor fit]",
NC(=O)C1CCCN(C(=O)CNC(=O)C23CC4CC(CC(C4)C2)C3)C1 (stereo not given),inactive,
Cc1ccc(/C(N)=N/OC(=O)Cc2cccc3ccccc23)cc1,"inconclusive: 14.1 µM [activator, single point]",
Cc1ccc(Nc2nc(-c3cccnc3)nc3ccccc23)cc1,"inconclusive: 14.1 µM [activator, partial curve, poor fit]",
CCn1c(SCC(=O)Nc2sc3c(c2C(N)=O)CCC(C)C3)nnc1-c1ccco1 (stereo not given),inactive,
S=C(NCCc1ccccc1)NCc1ccccc1Cl,"inconclusive: 20 µM [activator, partial curve, poor fit]",
CCCCC(=O)N(C)c1c(C)nc2ccc(C(=O)N3CCN(C(=O)c4ccco4)CC3)cn12,inactive,
COc1ccc(N2CCC(CNC(=S)Nc3cc(C)cc(C)c3)C2)cc1 (stereo not given),"inconclusive: 11.2 µM [activator, partial curve]",
Cc1cc(C)n(-c2nc3ccccc3c(=O)n2OCC#N)n1,"inconclusive: 22.4 µM [activator, partial curve, poor fit]",
NC(=O)NC(CC(=O)NNC(=O)c1cccs1)c1ccc(Cl)cc1 (stereo not given),inactive,
CC(C)C(=O)NC(CC(=O)O)c1ccccc1 (stereo not given),"inconclusive: 35.5 µM [activator, single point]",
COc1ccc(CN2CCC(C)(Oc3cccc(F)c3)C2)c2ccccc12 (stereo not given),inactive,
CC(C)c1ccc(NC(=O)N2CCc3ccccc3C2)cc1,"inconclusive: 12.6 µM [activator, single point]",
O=C(NC(=S)NCCOCc1ccc(Cl)cc1)c1cccnc1,"inconclusive: 31.6 µM [activator, partial curve, poor fit]",
COc1ccc(C2(CNC(=O)c3ccc(OCC(C)C)cc3)CCOCC2)cc1,"inconclusive: 35.5 µM [activator, single point]",
CS(=O)(=O)c1ccc(-c2csc(C(O)c3cccc(Cl)c3)n2)cc1 (stereo not given),,inconclusive: 36.1% [activator]
